Assay results: PubChem BioAssay AID1159614 (National Center for Advancing Translational Sciences (NCATS), 2016)
Out of some 45,000 compounds screened, about 65 (0.1%) were called active. Calls come from the whole dose curve; as a rule, active = well fitted activation curve with a large enough effect; inconclusive = small, poorly fitted or top-dose-only effect; inactive = no such curve, though single readings can be large or run the other way. The list shows a part of the results.

biological target: Galactocerebrosidase (Homo sapiens) (UniProt P54803); experiment: A Novel Cell-Based Assay to Identify Small Molecules for B -Galactocerebrosidase; conditions: 145M-Twi-hGALC-G270D cells, HMU-beta-Gal fluorescence, 48 h; series mostly up to 57.5 µM; activation: at the top concentration; note: 0% is about no effect; nearly all actives have a fitted effect of over 65% in size
Chain of UniProt P54803 (P54803 whole entry, looked up): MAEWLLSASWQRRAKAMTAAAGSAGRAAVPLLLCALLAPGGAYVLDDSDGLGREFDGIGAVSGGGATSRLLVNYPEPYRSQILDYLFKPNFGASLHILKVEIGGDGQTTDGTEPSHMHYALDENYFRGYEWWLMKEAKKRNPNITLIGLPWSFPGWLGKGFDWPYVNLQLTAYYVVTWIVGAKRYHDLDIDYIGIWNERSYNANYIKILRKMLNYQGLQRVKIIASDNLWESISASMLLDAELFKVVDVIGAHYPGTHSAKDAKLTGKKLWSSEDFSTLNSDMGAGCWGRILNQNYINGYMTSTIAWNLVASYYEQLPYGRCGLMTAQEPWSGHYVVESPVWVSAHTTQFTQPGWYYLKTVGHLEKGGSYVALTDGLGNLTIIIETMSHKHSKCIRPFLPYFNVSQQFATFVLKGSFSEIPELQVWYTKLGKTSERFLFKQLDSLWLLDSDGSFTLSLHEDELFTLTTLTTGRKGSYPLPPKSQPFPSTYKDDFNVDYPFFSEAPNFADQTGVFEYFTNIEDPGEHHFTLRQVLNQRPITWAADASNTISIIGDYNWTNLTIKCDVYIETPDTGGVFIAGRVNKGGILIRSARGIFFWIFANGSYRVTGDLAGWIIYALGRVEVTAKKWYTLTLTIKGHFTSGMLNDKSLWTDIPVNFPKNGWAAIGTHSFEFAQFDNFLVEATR
In short: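 qHTS, 1536-well; 145M-Twi-hGALC-G270D cells (WT line also made) in DMEM/F12 + 10% FBS; compound incubation on live cells; HMU-β-gal 0.1 mM final, pH 5.2, NaTC; carbonate stop; fluorescence increase = enhanced residual activity.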

activation, inactive:
CCc1nnc(SCC(=O)Nc2ccc(OC)c(OC)c2)c2cc3occc3n12 -7.59%
Cc1c(Nc2ncccc2C(=O)O)cccc1C(F)(F)F -14.3%
CCOc1ccc(-c2cc(C)n3nc(C(=O)Nc4ccc(C)c(C)c4)cc3n2)cc1 -12.1%
CC[C@H](c1ccc(O)cc1)[C@@H](CC)c1ccc(O)cc1 -20.4%
COC(=O)Cc1c(C)nc2nc(NCc3ccc(Br)cc3)[nH]n2c1=O -15.5%
Cc1ccc(NC(=O)CCC(=O)N2CCSc3ccccc32)cc1 -6.63%
COc1cccc(C(=O)Nc2cccc(OCc3cc(=O)n4cccc(C)c4n3)c2)c1 21.1%
CCCCNC(=O)CC1N=C2c3ccccc3N=C(SCC(=O)NCc3ccccc3Cl)N2C1=O (stereo unspecified) -11.6%
Cc1cnc2c(c1SCC(=O)NCc1ccccc1Cl)c(=O)n(C)c(=O)n2C -2.99%
CC(C)(Oc1ccc(Cl)cc1)C(=O)Nc1nnc2n1CCS2 -0.251%
Cc1ccn2c(Nc3ccccc3C)c(-c3cccnc3)nc2c1 -5.55%
CCOc1ccc(NC(=O)Cn2cc(C(=O)c3ccccc3)c(=O)c3cc4c(cc32)OCCO4)cc1 -28.3%
CCc1ccccc1Nc1cc(C(=O)NCCCN(C)C2CCCCC2)c2ccccc2n1 2.1%
O=C(COc1ccccc1)Nc1nnc(SCc2cc(=O)c3ccccc3[nH]2)s1 1.09%
Clc1ccc(-c2noc(-c3cccnc3N3CCN(c4ccccc4)CC3)n2)cc1 15%
Cc1ccc(C)c(N2CCN(C(=O)c3nn(C)c4c3CS(=O)(=O)c3ccccc3-4)CC2)c1 -14.7%
Cc1ccc(C2c3[nH]c4ccccc4c3CCN2C(=O)CCc2ccccc2)cc1 (stereo unspecified) 0.162%
CCN(C(=O)CSc1nc2ccccc2n1CC(=O)N1CCCC(C)C1)c1ccccc1 (stereo unspecified) 1.58%
O=C(CC(NCc1cccnc1)C(=O)O)Nc1ccc(O)cc1 (stereo unspecified) 9.67%
CCOc1ccc(CCNC(=O)C2CCN(Cc3nc(-c4ccccc4C)oc3C)CC2)cc1OCC -1.53%
Cn1c(=O)c(=O)n(C)c2cc(S(=O)(=O)Nc3ccc(Cl)c(C(F)(F)F)c3)ccc21 -8.35%
Fc1ccc(Nc2c(-c3ccco3)nc3ccccn23)cc1 -10.6%
COc1cc(OC)c(NC(=O)Cn2cnc3nc4c(cc3c2=O)CCCC4)cc1Cl -9.18%
Clc1ccc(-c2nnn3c2nc(NCc2ccc4c(c2)OCO4)c2ccccc23)cc1 -8.21%
Cc1cc(=O)oc2cc(OCC(=O)Nc3c(C(C)C)cccc3C(C)C)ccc12 -15.9%
Cc1ccc(NC(=O)C2CCC(CNS(=O)(=O)c3ccc4c(c3)C(C)(C)C(=O)N4C)CC2)cc1 (stereo unspecified) -0.232%
CC(C)(C)c1ccc(C(=O)N2CCN(Cc3cc(=O)n4nc(-c5ccccc5F)sc4n3)CC2)cc1 -7.98%
CCOc1ccc(CNC(=O)Cc2ccc(NC(=O)N3CCCCc4ccccc43)cc2)cc1OC -6.92%
O=C(CCCCCn1c(=O)[nH]c2ccccc2c1=O)NCc1ccc(Cl)cc1 -7.21%
CCC(=O)N1CCc2cc(Br)cc(S(=O)(=O)NCc3ccccc3)c21 3.25%
CCCc1cc(N2CCN(c3ccc(OC)cc3)CC2)n2cnnc2n1 -6.75%
COc1ccc(CCn2c(=O)c3cccnc3n(CC(=O)Nc3c(C)cc(C)cc3C)c2=O)cc1OC -7.74%
COc1cc(NC(=O)CCNC(=O)Cn2cnc3ccccc3c2=O)cc(OC)c1OC -9.27%
Cc1cc(C)c(NC(=O)Nc2csc3c2CCCC3)c(C)c1 -26%
Cc1sc2ncn(CC(=O)N(C)c3cccc(C(F)(F)F)c3)c(=O)c2c1S(=O)(=O)N1CCN(c2ncccn2)CC1 -4.33%
CCN(CC)C(=O)COc1ccc(-c2nnc(Nc3ccc(OC)c(C(=O)NC)c3)c3ccccc23)cc1 -19.8%
Fc1ccc(-n2ncc3c(N4CCN(c5ccccc5F)CC4)ncnc32)cc1 10.6%
COc1ccccc1-c1nc(SCC(=O)Nc2ccc(C)c(C)c2)n[nH]1 -19.8%
CSc1ccc(CCNC(=O)C2CCN(c3ncnc4c3nc3n4CCCCC3)CC2)cc1 -12.9%
O=C(CCn1ccc2cc(S(=O)(=O)N3CCCC3)ccc21)NCc1ccccc1Cl -14.5%
CCc1nn2c(=O)cc(COC(=O)c3ccccc3NC(=O)c3cccs3)nc2s1 -26%
CCn1nc(C)c2c(-c3ccccc3)cc(=O)n(C(C)C(=O)NCCc3ccccc3)c21 (stereo unspecified) -9.11%
Cc1cc(=O)oc2c3c(ccc12)OCN(Cc1ccc(Cl)cc1)C3 -5.65%
CCC1CCCCN1C(=O)Cn1c(=O)n(CCCCCC(=O)NCc2ccccc2Cl)c(=O)c2sccc21 (stereo unspecified) -19%
COc1cccc(-c2nnc3sc(CN4CCCCC4)cn23)c1 -15.5%
Cc1cccc(CCNC(=O)c2c[nH]c3ccc(S(=O)(=O)Nc4ccccc4F)cc3c2=O)c1 4.87%
O=C(NCCc1ccc(Cl)cc1)c1ccc2c(c1)N(Cc1cccc(Cl)c1)C(=O)c1ccccc1S2(=O)=O -9.46%
Fc1ccccc1Nc1ncnc2c1nc1n2CCCCC1 -14.5%
Cc1cccc(CN2C(=O)c3ccccc3Sc3ccc(C(=O)NCc4cccs4)cc32)c1 -7.7%
CCOC(=O)N1CCc2c(sc3c2c(=O)n(-c2ccc(F)cc2)c(=O)n3CC(=O)c2ccccc2)C1 -9.38%
O=C(NCCc1ccccc1)C1COc2ccccc2C1 (stereo unspecified) -23.1%
CCOC(=O)c1c(NC(=O)c2cc3ccccc3c(=O)o2)sc2c1CCC(C(C)(C)C)C2 (stereo unspecified) -2.34%
Cc1cc(=O)n(CC(=O)NC(C)c2ccccc2)c2c1c(C)nn2C (stereo unspecified) -38.4%
CCc1ccc(NC(=O)c2cc(C)nn2-c2ccccc2)cc1 -14.5%
CCOC(=O)c1c(C)n(-c2ccccc2)c2ccc(OC(=O)c3cc(OC)cc(OC)c3)cc12 -12.6%
CCCNc1nc2c(c(=O)n(C)c(=O)n2C)n1CC(O)COc1ccccc1 (stereo unspecified) -5.04%
COc1ccc(NC(=O)c2oc3ccccc3c2NC(=O)COc2ccc(F)cc2)c(OC)c1 -16.2%
Cn1c(=O)n(C)c2cc(NS(=O)(=O)c3ccc(C(C)(C)C)cc3)c(NCc3ccccc3)cc21 -16.2%
Cc1cccc(C(=O)Nc2nnc(S(=O)(=O)N3CCCc4ccccc43)s2)c1 -12.8%
Cc1ccc(NC(=O)Cn2cc(C(=O)C3CCCCC3)c3ccccc32)c(C)c1 -17%
CCOc1ccc(NC(=O)CCNS(=O)(=O)c2cccc3nsnc23)cc1 -11%
